# Experimental data as given in PubChem BioAssay AID504832 (National Center for Advancing Translational Sciences (NCATS), 2011).
# Where “and” joins values, the source holds several entries; their conditions need not be identical. Equal entries are not always repeated. Out of some 310,000 compounds screened, about 18,000 (5.8%) were called active. Inconclusive means that the source gave no clear call. Such entries were picked first, then a sample of the others. Calls come from the whole dose curve; as a rule, active = well fitted inhibition curve with a large enough effect; inconclusive = small, poorly fitted or top-dose-only effect, or another doubt; inactive = no such curve, though single readings can be large or run the other way. Potencies of inconclusive entries are doubtful fits and often do not repeat.
# Experiment: Primary qHTS for delayed death inhibitors of the malarial parasite plastid, 48 hour incubation
# Conditions: P. falciparum luciferase growth in erythrocytes; series mostly up to 28.7 µM
# In short: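 Here the parasites carry a stable luciferase gene and grow inside erythrocytes in Albumax-based RPMI medium with compound for one erythrocytic cycle. Activity is scored as loss of luminescent signal.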
# Potency is the fitted concentration of half-maximal effect; tags give direction and shape of the fitted curve.
row,SMILES,Potency
1,CN(/N=C/c1ccccc1O)C(=S)c1ccccc1,"inconclusive: 16.5 µM [inhibitor, single point]"
2,Cc1nnc(SC(C(=O)Nc2cc(Cl)cc(Cl)c2)c2ccccc2)[nH]c1=O (stereo not given),"inconclusive: 18.5 µM [inhibitor, single point]"
3,CCn1cc(/C=c2/sc3n(c2=O)C2c4ccccc4OC(C)(N=3)C2C(=O)OC)c(C)n1 (stereo not given),"inconclusive: 8.28 µM [inhibitor, partial curve]"
4,COc1cccc(C2=NOC(C(=O)Nc3cc(OC)c(OC)c(OC)c3)C2)c1 (stereo not given),"inconclusive: 20.8 µM [inhibitor, partial curve, poor fit]"
5,CCOC(=O)N1CCN(Cc2cc(=O)oc3cc4c(cc23)CCC4)CC1,"inconclusive: 7.38 µM [inhibitor, partial curve, poor fit]"
6,COc1ccccc1C(=O)N/C(=C/c1ccccc1)C(=O)Nc1ccc(C(=O)O)cc1,"inconclusive: 2.94 µM [inhibitor, full curve]"
7,CCOC(=O)/C(=C\c1cccc(O)c1)c1nc2sc(C)c(C)c2c(=O)[nH]1,"inconclusive: 20.8 µM [inhibitor, single point]"
8,CCOC(=O)c1ccc(Cl)c(S(=O)(=O)N2CCCC2)c1,"inconclusive: 9.28 µM [inhibitor, partial curve]"
9,CC(=O)c1ccc(NC(=O)CSc2nc(N3CCOCC3)nc(N3CCOCC3)n2)cc1,"inconclusive: 18.5 µM [inhibitor, single point]"
10,Cc1cc2c(NC(=O)Nc3ccc(F)cc3)cccc2nn1,"inconclusive: 2.33 µM [inhibitor, partial curve, poor fit]"
11,CCOc1ccc(NC(=O)CSc2nc(=O)n(CCN3CCOCC3)c3c2CCCC3)cc1,"inconclusive: 20.8 µM [inhibitor, partial curve, poor fit]"
12,O=C(CC(Nc1cccc(Cl)c1Cl)C(=O)O)c1ccccc1 (stereo not given),inactive
13,O=C(c1ccc(Cl)cc1Cl)N1CCC(c2nc3c(nnn3Cc3ccco3)c(=O)[nH]2)CC1,"inconclusive: 10.4 µM [inhibitor, partial curve]"
14,O=C(Nc1cccc(S(=O)(=O)Nc2ccc(Cl)cc2)c1)c1ccccn1,inactive
15,O=C(NCCc1cccc(F)c1)/C(=C/c1cccnc1)NC(=O)c1ccccc1,inactive
16,CC1(OC(=O)CCc2ccccc2)C(=O)C=C2C=C(c3ccc(C#N)cc3)N(CC3CC3)C=C2C1=O (stereo not given),"inconclusive: 9.28 µM [inhibitor, single point]"
17,CNS(=O)(=O)c1cccc(C(=O)OCC(=O)N2c3ccccc3NC(=O)C2(C)C)c1,"inconclusive: 11.7 µM [inhibitor, single point]"
18,[2H]C([2H])(CCOS(N)(=O)=O)c1ccccc1,inactive
19,Cc1nc2sc(C(=O)Nc3ccccc3Cc3ccccc3)c(C)c2c(=O)[nH]1,"inconclusive: 18.5 µM [inhibitor, single point]"
20,Cc1ccc2[nH]c(=O)c(CN(Cc3cccs3)Cc3nnnn3CC3CCCO3)cc2c1 (stereo not given),"inconclusive: 13.1 µM [inhibitor, single point]"
21,CC1CCc2sc(C(=O)NCC(c3ccco3)N3CCCCC3)cc2C1 (stereo not given),active: 7.38 µM
22,O=C(Nc1ccc(N2CCOCC2)cc1)C1CCN(S(=O)(=O)c2ccc3c(c2)OCCO3)CC1,active: 8.28 µM

row,SMILES,Potency
1,COc1ccc(Cl)cc1Nc1nc2ccc(C)cc2n2cnnc12,"inconclusive: 18.5 µM [inhibitor, single point]"
2,CC(NC(=O)NC1CCCCC1)C(c1cccs1)N1CCN(Cc2ccccc2)CC1 (stereo not given),inactive
3,Cc1c2ccccc2cc[n+]1CCCS(=O)(=O)[O-],"inconclusive: 0.415 µM [inhibitor, partial curve, poor fit]"
4,CCn1cc(C(C)NC(=O)COc2ccc(Cl)cc2C)c(C)n1 (stereo not given),inactive
5,COc1ccc(OCC(=O)Nc2ccc(N3CCOCC3)c(Cl)c2)cc1,"inconclusive: 13.1 µM [inhibitor, partial curve, poor fit]"
6,N=c1c2c(-c3ccccc3)c(-c3ccccc3)n(Cc3ccco3)c2ncn1CCCN1CCOCC1,"inconclusive: 1.65 µM [inhibitor, full curve, poor fit]"
7,O=C(O)c1cccc2c1NC(C(=O)O)C1CC(Sc3ccccc3[N+](=O)[O-])C(Cl)C21 (stereo not given),inactive
8,CCn1c(CCNC(=O)c2ccco2)nc2ccccc21,inactive
9,CCOc1cc(N2CCOCC2)c(OCC)cc1NC(=O)CCS(=O)(=O)c1ccc(Cl)cc1,"inconclusive: 13.1 µM [inhibitor, partial curve]"
10,CC(C)N1CCc2c(sc(NC(=S)NC(=O)c3ccccc3)c2C#N)C1,active: 10.4 µM
11,CCN(Cc1ccccc1)C1CCN(Cc2ccc(SC)cc2)CC1,"inconclusive: 18.5 µM [inhibitor, single point]"
12,COc1ccc(-c2cc(OC(=O)c3ccc(F)cc3)c3c(C)oc(C)c3c(=O)c2)cc1,"inconclusive: 0.0208 µM [inhibitor, full curve, poor fit]"
13,O=C(c1ccco1)N1N=C(c2ccc(Br)cc2)CC1c1ccco1 (stereo not given),"inconclusive: 18.5 µM [inhibitor, single point]"
14,CC(=O)OCC(=O)[C@@]12OC(C)(C)O[C@@H]1CC1C3C[C@H](F)C4=CC(=O)C=CC4(C)[C@@]3(F)C(O)CC12C (stereo not given in full),"inconclusive: 13.1 µM [inhibitor, single point]"
15,O=C(NC1CCCC1)C(c1cccs1)N(CC1CCCO1)C(=O)Cc1cccs1 (stereo not given),"inconclusive: 11.7 µM [inhibitor, single point]"
16,COCCSc1ccccc1C(=O)Nc1ccccc1C#N,inactive
17,CCCOc1ccccc1C1CC(=O)NC2=C1C(=O)CCC2 (stereo not given),"inconclusive: 1.17 µM [inhibitor, full curve, poor fit]"
18,CCOC(=O)Cc1nnc(NC(=O)c2cccc(OCC)c2)s1,inactive
19,C=CCn1cnc2c(c1=O)c1nc3ccccc3nc1n2/N=C/c1cccc(OC)c1,"inconclusive: 18.5 µM [inhibitor, single point]"
20,Cc1occc1-c1nnc(SCC(=O)NCc2cccs2)n1-c1ccc(F)cc1,"inconclusive: 9.28 µM [inhibitor, single point]"
21,Cc1cc(C)c(C)c(S(=O)(=O)N2CCC(C(=O)N3CCCCCCC3)CC2)c1C,inactive
22,C=CCOC(=O)C(C#N)c1nc2ccccc2nc1N1CCN(c2ccccc2OCC)CC1 (stereo not given),active: 9.28 µM

row,SMILES,Potency
1,COc1cc(C)c(N(C(C)=O)c2ccccc2)c(C)c1,active: 5.86 µM
2,Cc1ccc(S(=O)(=O)c2c(C)cc(C)nc2N2CCCCC2)cc1,"inconclusive: 9.28 µM [inhibitor, partial curve]"
3,COc1cccc(C2=CC(=O)C[C@H](c3ccc(Cl)cc3)C2)c1,active: 2.94 µM
4,Cc1nn(CCc2nn[nH]n2)c2nc(-c3ccc(C4CCCCC4)cc3)cc(C(F)(F)F)c12,active: 5.22 µM
5,CCOc1cc(S(=O)(=O)NCCc2ccccc2C)c(OCC)cc1-n1cnnn1,"inconclusive: 13.1 µM [inhibitor, single point]"
6,COc1ccccc1[As](=O)(O)CC(O)COc1ccc(Cl)cc1Cl (stereo not given),"inconclusive: 13.1 µM [inhibitor, single point]"
7,COCCCC/C(=N\OCCN)c1ccc(C(F)(F)F)cc1,"inconclusive: 11.7 µM [inhibitor, partial curve, poor fit] and inconclusive: 13.1 µM [inhibitor, single point] and inconclusive: 10.4 µM [inhibitor, single point]"
8,COC(=O)C1=C(c2ccc(OC(F)(F)F)cc2)C[C@@H]2CC[C@H]1N2C(=O)NCc1cc(C)oc1C(F)(F)F,active: 11.7 µM
9,COc1ccc(OCc2n(CC(=O)OC3CC(C)CCC3C(C)C)c3ccccc3[n+]2C)cc1 (stereo not given),active: 1.04 µM
10,Cn1c(=O)n(Cc2ccccc2F)c(=O)c2c1nc1n2CCCN1CCc1ccccc1,"inconclusive: 2.62 µM [inhibitor, full curve, poor fit]"
11,CCOc1cccc(C(=O)N2CCCCC2c2cccnc2)c1 (stereo not given),active: 9.28 µM
12,CCC(=O)NC(=S)Nc1cccc(Cl)c1N1CCCC1,"inconclusive: 9.28 µM [inhibitor, single point]"
13,COc1ccc(N2CCN(C(=S)NC(C)c3ccccc3)CC2)cc1 (stereo not given),"inconclusive: 18.5 µM [inhibitor, single point]"
14,COc1ccccc1CNN,"inconclusive: 11.7 µM [inhibitor, single point]"
15,Cc1cc(C(=O)N/N=C/c2cc(Br)cc(Br)c2OC(=O)c2cccc(F)c2)n[nH]1,active: 11.7 µM
16,COc1ccc2nc(Sc3c([N+](=O)[O-])nc(C)n3Cc3ccccc3)[nH]c2c1,inactive
17,CCC1C(=O)NCCN1C(=O)c1cccc(OC2CCN(S(=O)(=O)N(C)C)CC2)c1 (stereo not given),inactive
18,COc1ccc(C(CNC(=O)c2cccc(NS(=O)(=O)c3ccc(C)c(F)c3)c2)N2CCCC2)cc1 (stereo not given),"inconclusive: 13.1 µM [inhibitor, single point]"
19,Clc1ccc(CN2CC[C@H]3C=CCc4cccc(c43)C2)cc1,active: 3.7 µM
20,COC(CN(C(=O)CCl)C(C(=O)NC1CCCCC1)c1ccc(Cl)cc1)OC (stereo not given),"inconclusive: 8.28 µM [inhibitor, partial curve, poor fit]"
21,CCCNC(=O)N1[C@H]2CC[C@@H]1C(C(=O)OC)=C(c1ccc(Cl)c(C(F)(F)F)c1)C2,"inconclusive: 6.57 µM [inhibitor, partial curve, poor fit]"
